{
  "source": "PubChem BioAssay AID720707",
  "about": "(National Center for Advancing Translational Sciences (NCATS), 2013)",
  "note": "Among all 360,000 compounds or so, about 270 (0.075%) were called active. Inconclusive means that the source gave no clear call. Such entries were picked first, then a sample of the others. The call rests on the fitted dose curve; in most records, active means well fitted activation curve with a large enough effect; inconclusive means small, poorly fitted or top-dose-only effect; inactive means no such curve, though single readings can be large or run the other way. No potency is given beside an inconclusive call; the fits are too rough. Potency means the concentration at half of the fitted maximal effect; tags describe the fitted curve by direction and shape.",
  "data": [
    {"target": "Rap guanine nucleotide exchange factor 3 (Homo sapiens) (UniProt O95398)", "sequence (O95398 whole entry, looked up)": "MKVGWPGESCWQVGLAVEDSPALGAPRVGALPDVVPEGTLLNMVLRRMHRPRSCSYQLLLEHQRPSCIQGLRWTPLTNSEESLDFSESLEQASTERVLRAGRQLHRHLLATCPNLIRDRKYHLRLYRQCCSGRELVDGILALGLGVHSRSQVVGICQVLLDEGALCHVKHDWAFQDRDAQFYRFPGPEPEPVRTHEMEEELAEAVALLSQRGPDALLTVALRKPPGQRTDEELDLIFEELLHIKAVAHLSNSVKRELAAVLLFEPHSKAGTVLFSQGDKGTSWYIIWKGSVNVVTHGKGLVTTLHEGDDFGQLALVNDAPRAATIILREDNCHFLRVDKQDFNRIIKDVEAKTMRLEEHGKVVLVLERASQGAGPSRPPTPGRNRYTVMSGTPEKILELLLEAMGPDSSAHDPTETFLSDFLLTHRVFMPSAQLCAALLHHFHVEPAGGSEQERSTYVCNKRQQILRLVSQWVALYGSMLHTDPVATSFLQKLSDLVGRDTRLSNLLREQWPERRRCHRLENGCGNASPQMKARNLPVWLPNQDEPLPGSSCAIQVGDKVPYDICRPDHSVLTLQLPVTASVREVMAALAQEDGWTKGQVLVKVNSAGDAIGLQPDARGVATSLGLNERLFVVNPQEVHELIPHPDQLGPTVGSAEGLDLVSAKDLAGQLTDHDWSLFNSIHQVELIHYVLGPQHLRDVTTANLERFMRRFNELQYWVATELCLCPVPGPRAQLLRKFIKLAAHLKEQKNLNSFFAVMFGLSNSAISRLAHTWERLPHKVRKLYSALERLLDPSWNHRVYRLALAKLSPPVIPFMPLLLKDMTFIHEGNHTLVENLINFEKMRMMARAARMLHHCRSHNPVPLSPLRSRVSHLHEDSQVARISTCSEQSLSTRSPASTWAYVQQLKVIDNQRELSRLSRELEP", "assay": "qHTS for Agonist of cAMP-regulated guanine nucleotide exchange factor 3 (EPAC1): primary screen; further: nearly all actives have a fitted effect of over 60% in size", "settings": "biochemical assay; activation: at 154 µM (top of the series), 100% = response to 6.5 mM cAMP", "procedure,_shortened": "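Compounds were pinned as a concentration titration into mixtures of EPAC1 (100 nM), BODIPY-GDP-loaded Rap1B (250 nM) and GDP (50 uM). After 5 min at room temperature, fluorescence was followed for 30 min; activity was scaled to 6.5 mM cAMP.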", "values": [
      {"smiles": "CC(C)c1ccc(OC(=O)c2cccc(S(=O)(=O)N3CCN(C)CC3)c2)cc1", "Potency": "inconclusive [activator, partial curve]"},
      {"smiles": "CCN(CC)CCCCNc1ncc2cc(-c3cc(OC)cc(OC)c3)c(NC(=O)NC(C)(C)C)nc2n1", "Potency": "inactive"},
      {"smiles": "CNCc1ccccc1Sc1cc(O)ccc1O", "Potency": "inactive"},
      {"smiles": "CC1CN(C(=O)c2ccc(-c3cccc(C(F)(F)F)c3)o2)CC(C)O1", "note": "(stereo unspecified)", "Potency": "inconclusive [activator, single point]"},
      {"smiles": "O=C(CSc1ccccn1)N1CCCC(Nc2ccccc2)C1", "note": "(stereo unspecified)", "Potency": "inactive"},
      {"smiles": "O=C(CN1C(=O)S/C(=C\\c2ccc(Cl)cc2)C1=O)NNC(=O)c1ccccc1O", "Potency": "inactive"},
      {"smiles": "Cc1ccc2[nH]c(C)c(/C=C/c3cc[n+](C)cc3)c2c1", "Potency": "inconclusive [activator, partial curve]"},
      {"smiles": "Cc1ccc(-c2cc(-c3ccccc3)nc(N/N=C/c3cccnc3)n2)cc1", "Potency": "inconclusive [activator, partial curve]"},
      {"smiles": "CCCCC1=CC2=CC(=O)C(C)(OC(=O)CC)C(=O)C2=CN1CCc1ccc(Br)cc1", "note": "(stereo unspecified)", "Potency": "inactive"},
      {"smiles": "N#CC(C#N)=NNc1ccc([N+](=O)[O-])cc1", "Potency": "inactive"},
      {"smiles": "Cc1ccc(-c2cc(C(=O)Nc3cccnc3)c3ccccc3n2)s1", "Potency": "inconclusive [activator, full curve, poor fit]"},
      {"smiles": "COc1cc(/C=C2\\SC(=S)N(CCC(=O)Nc3cccc(O)c3)C2=O)cc(OC)c1OC", "Potency": "inconclusive [activator, partial curve]"},
      {"smiles": "CN(Cc1ccccc1F)C(=O)C(Cc1ccccc1)NC(=O)c1ccccc1", "note": "(stereo unspecified)", "Potency": "inconclusive [activator, single point]"},
      {"smiles": "COc1ccccc1N1CCN(C(=O)c2cc(-c3ccc(C)cc3)on2)CC1", "Potency": "inconclusive [activator, partial curve]"},
      {"smiles": "Cc1ccc2c3c(cccc13)-c1ccccc1C2=O", "Potency": "inconclusive [activator, single point]"},
      {"smiles": "CN(C)CCCNCC(=O)c1c(-c2ccccc2)n(C)c2ccccc12", "Potency": "inactive"},
      {"smiles": "CC(=O)c1ccccc1NC(=O)COC(=O)CSCC(=O)Nc1cc(C)on1", "Potency": "inconclusive [activator, single point]"},
      {"smiles": "CN(C)c1cccc(NC(=O)C2(C)CC2(Cl)Cl)c1", "note": "(stereo unspecified)", "Potency": "inactive"},
      {"smiles": "CCN(CC)c1ccc2cc(C=O)c(=O)oc2c1", "Potency": "active: 100 µM"},
      {"smiles": "CC(C)(C)C(=O)NCc1ccc(C(=O)CN2C(=O)NC3(CCCC3)C2=O)s1", "Potency": "inconclusive [activator, partial curve, poor fit]"},
      {"smiles": "CCOc1ccc(N(CC(=O)NCCSCc2ccco2)S(=O)(=O)c2ccc(F)cc2)cc1", "Potency": "inconclusive [activator, partial curve]"},
      {"smiles": "O=C(CCNC(=O)c1ccccc1Cl)Nc1cccc(S(=O)(=O)N2CCCCC2)c1", "Potency": "inconclusive [activator, partial curve]"},
      {"smiles": "CC(Nc1nc(-c2ccncc2)nc2ccccc12)c1ccccc1", "note": "(stereo unspecified)", "Potency": "inconclusive [activator, partial curve]"},
      {"smiles": "Cc1ccc(-c2cn3nc(-c4ccccc4)c(-c4ccccc4)nc3n2)cc1", "Potency": "inactive"},
      {"smiles": "Cc1cc(NC(=O)c2noc3c2CCc2ccccc2-3)no1", "Potency": "inconclusive [activator, single point]"},
      {"smiles": "O=[N+]([O-])c1ccc(N2N=C(c3ccco3)CC2c2ccccc2)cc1", "note": "(stereo unspecified)", "Potency": "inconclusive [activator, partial curve]"},
      {"smiles": "Cc1cc(C(=O)CSc2nc(N)cc(N)n2)c(C)n1C1CC1", "Potency": "inactive"},
      {"smiles": "CN(C)CCNC(=O)C1(C)Cc2c(-c3cccc(C(F)(F)F)c3)ccnc2O1", "note": "(stereo unspecified)", "Potency": "inconclusive [activator, single point]"},
      {"smiles": "O=C(NCc1ccc(F)cc1)C(c1cccnc1)N(C(=O)c1csnn1)c1ccccc1", "note": "(stereo unspecified)", "Potency": "inconclusive [activator, single point]"},
      {"smiles": "O=C(COC(=O)Cc1ccc(Cl)cc1)Nc1ccc2[nH]c(=O)[nH]c2c1", "Potency": "inconclusive [activator, single point]"},
      {"smiles": "COc1ccc(OC)c(NS(=O)(=O)c2cc3c4c(c2)CCN4C(=O)CC3)c1", "Potency": "inconclusive [activator, single point]"},
      {"smiles": "Cc1ccc(C(=O)OCC(=O)Nc2sc3c(c2C#N)CCCCC3)cc1NC(=O)c1ccco1", "Potency": "inactive"},
      {"smiles": "O=C(COC(=O)c1nc(Cl)ccc1Cl)c1ccccc1Cl", "Potency": "inconclusive [activator, partial curve, poor fit]"},
      {"smiles": "O=C(Nc1cc(Cl)ccc1-n1cncn1)c1cc(F)c(F)c(F)c1F", "Potency": "inconclusive [activator, single point]"},
      {"smiles": "O=C(N/N=C/c1c(O)ccc2ccccc12)c1cccc(C(F)(F)F)c1", "Potency": "inconclusive [activator, partial curve]"},
      {"smiles": "CC1CN(C(=O)COC(=O)COc2ccc(C#N)cc2)CC(C)O1", "note": "(stereo unspecified)", "Potency": "inconclusive [activator, single point]"},
      {"smiles": "CN(CC(=O)Nc1cccc(F)c1)C(=O)c1cc([N+](=O)[O-])ccc1N1CCCCC1", "Potency": "inconclusive [activator, full curve]"},
      {"smiles": "CCC1(c2ccccc2)NC(=O)N(CC(=O)Nc2ccccc2C(=O)NC2CCCC2)C1=O", "note": "(stereo unspecified)", "Potency": "inactive"},
      {"smiles": "CCCCOC(=O)C(C#N)c1nc2ccccc2nc1N1CCN(Cc2ccc3c(c2)OCO3)CC1", "note": "(stereo unspecified)", "Potency": "inconclusive [activator, single point]"},
      {"smiles": "O=C1/C(=C/c2cccnc2)SC(=S)N1NS(=O)(=O)c1ccccc1", "Potency": "inactive"},
      {"smiles": "CCC1=NN(C(=O)c2ccc(Br)cc2)C(O)(c2ccccc2)C1", "note": "(stereo unspecified)", "Potency": "active: 112 µM"},
      {"smiles": "S=c1[nH]nc(SCc2ccccc2)c2[nH]cnc12", "Potency": "inactive"},
      {"smiles": "COc1ccc(CCNC(=O)CCCn2nc(C)c([N+](=O)[O-])c2C)cc1OC", "Potency": "inactive"},
      {"smiles": "Cc1[nH][nH]c(=O)c1C(c1ccc(-c2ccc(F)cc2)o1)c1c(C)[nH][nH]c1=O", "Potency": "inactive"},
      {"smiles": "Cc1cc(/C=C2/C(=N)N3C(=NC2=O)SN=C3S(C)(=O)=O)c(C)n1-c1ccc(F)cc1", "Potency": "inactive"},
      {"smiles": "Cn1c(N)c(C(C[N+](=O)[O-])c2c(F)cccc2Cl)c(=O)n(C)c1=O", "note": "(stereo unspecified)", "Potency": "inactive"},
      {"smiles": "O=C(NC(=S)N1CCN(c2ccccc2)CC1)c1ccco1", "activation": "inconclusive: 6.58% [activator]"},
      {"smiles": "Cc1ccc(NC(=O)/C=C/c2ccc([N+](=O)[O-])s2)cc1", "Potency": "inactive"},
      {"smiles": "CN1c2ccccc2C(O)=C(C(=S)Nc2ccc(F)c(Cl)c2)S1(=O)=O", "Potency": "inactive"},
      {"smiles": "COc1ccccc1-n1c(=O)c(C#N)c(-c2ccc([N+](=O)[O-])cc2)c2cc(C(=O)c3cc(F)ccc3O)cnc21", "Potency": "inactive"},
      {"smiles": "COc1cccc2c1C(=O)c1c(O)c3c(c(O)c1C2=O)CC(O)(C(=O)CO)CC3OC1CC(N(C)C)C(O)C(C)O1", "note": "(stereo unspecified)", "Potency": "inconclusive [activator, single point]"},
      {"smiles": "COc1cc(C(=O)NCC(=O)N/N=C(\\C)Cc2ccccc2)cc(OC)c1OC", "Potency": "inconclusive [activator, partial curve]"},
      {"smiles": "COc1cc(C)c(CN2CCN(CC(=O)Nc3ccccc3C(=O)NC3CC3)CC2)cc1OC", "Potency": "inactive"},
      {"smiles": "C=CCn1c(N)c(C(=O)NCCC2=CCCCC2)sc1=S", "Potency": "inactive"},
      {"smiles": "Cc1nc(SC(C)C(=O)NCC2CCCO2)c2cc(-c3ccccc3)sc2n1", "note": "(stereo unspecified)", "Potency": "inconclusive [activator, partial curve, poor fit]"},
      {"smiles": "COc1ccc(-c2csc3ncnc(N4CCN(S(=O)(=O)c5cccc(Br)c5)CC4)c23)cc1", "Potency": "inconclusive [activator, single point]"},
      {"smiles": "Cc1c(O)c2c3c(cccc3c1O)C(=O)N(c1ccccc1)C2=O", "Potency": "inconclusive [activator, partial curve]"},
      {"smiles": "COc1ccc2c3c(cccc13)C(=O)CC2", "Potency": "active: 100 µM"},
      {"smiles": "COCCNC(=O)C1CCCN(C(=O)c2cc(C)n(C(C)(C)C)n2)CC1", "note": "(stereo unspecified)", "Potency": "inactive"},
      {"smiles": "Cc1nn(-c2nc3ccccc3s2)c(C)c1Oc1ccccc1O", "Potency": "inconclusive [activator, single point]"},
      {"smiles": "O=S(Cc1cc(Sc2ccccc2)nc(-c2ccccc2)n1)c1ccccc1", "note": "(stereo unspecified)", "Potency": "inconclusive [activator, partial curve]"},
      {"smiles": "O=C1CCc2cc(S(=O)(=O)NCc3ccc(F)cc3)cc3c2N1CC3", "Potency": "inconclusive [activator, full curve, poor fit]"},
      {"smiles": "COc1cc(/C=C2\\SC(=O)N(c3ccc(Cl)cc3)C2=O)cc([N+](=O)[O-])c1O", "Potency": "inconclusive [activator, partial curve, poor fit]"},
      {"smiles": "Cc1noc(C)c1COc1ccccc1C(=O)NCCc1ccc(S(N)(=O)=O)cc1", "Potency": "inactive"},
      {"smiles": "OCCN1CCN(c2cc(-c3ccc4ccccc4c3)nc3ccnn23)CC1", "Potency": "inactive"},
      {"smiles": "CCCCN(C(=O)CSc1n[nH]c(-c2ccc(C)cc2)n1)c1c(N)n(CCCC)c(=O)[nH]c1=O", "Potency": "inconclusive [activator, partial curve, poor fit]"},
      {"smiles": "Nc1nc(Sc2ccc([N+](=O)[O-])c3nonc23)c2[nH]cnc2n1", "Potency": "inconclusive [activator, full curve]"},
      {"smiles": "Cc1cc(/C=N/n2cnnc2)c(C)n1-c1ccc(OCc2ccccc2F)cc1", "Potency": "inconclusive [activator, partial curve]"},
      {"smiles": "COc1ccc(OC)c2c1C(=O)c1ccccc1C2=O", "Potency": "active: 89.1 µM"},
      {"smiles": "O=[N+]([O-])c1cccc(-c2ccc(C(=S)N3CCOCC3)o2)c1", "Potency": "inactive"},
      {"smiles": "CC(C)c1ccc(NC2CCCN(C(=O)c3cnsn3)C2)cc1", "note": "(stereo unspecified)", "Potency": "inconclusive [activator, partial curve]"}
    ]}
  ]
}
